Results as given in the supplement of paper PMC3334620.
In all, about 33,000 sequences were measured (“E-score (-0.5 to 0.5)”: median about -0.041, highest 2% from about 0.37 on). Some of the results follow.

Target: T1, Ecm22 (UniProt Q05958)
T1 sequence: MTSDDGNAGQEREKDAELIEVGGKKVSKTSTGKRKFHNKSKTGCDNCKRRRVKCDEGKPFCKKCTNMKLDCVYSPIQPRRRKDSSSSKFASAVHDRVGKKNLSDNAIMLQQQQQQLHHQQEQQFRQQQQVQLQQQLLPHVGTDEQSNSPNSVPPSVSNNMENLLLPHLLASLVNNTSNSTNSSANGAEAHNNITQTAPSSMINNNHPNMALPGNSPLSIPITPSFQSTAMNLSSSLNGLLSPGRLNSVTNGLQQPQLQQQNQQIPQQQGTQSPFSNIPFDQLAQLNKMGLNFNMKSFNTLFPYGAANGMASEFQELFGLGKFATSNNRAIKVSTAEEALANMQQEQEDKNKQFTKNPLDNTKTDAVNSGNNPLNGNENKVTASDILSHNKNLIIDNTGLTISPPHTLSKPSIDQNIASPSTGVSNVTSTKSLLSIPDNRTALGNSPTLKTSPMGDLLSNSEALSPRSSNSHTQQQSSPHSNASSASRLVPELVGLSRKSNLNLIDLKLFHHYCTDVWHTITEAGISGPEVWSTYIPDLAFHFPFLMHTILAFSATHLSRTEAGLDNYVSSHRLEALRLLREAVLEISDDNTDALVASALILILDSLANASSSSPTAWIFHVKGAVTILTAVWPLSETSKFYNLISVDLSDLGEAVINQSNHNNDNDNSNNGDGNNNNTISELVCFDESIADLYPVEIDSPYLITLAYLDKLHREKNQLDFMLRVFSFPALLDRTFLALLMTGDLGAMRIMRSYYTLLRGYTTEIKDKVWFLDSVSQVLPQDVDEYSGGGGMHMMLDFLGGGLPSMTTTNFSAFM
Test: PBM E-score (8-mer binding enrichment) (E-score (-0.5 to 0.5)); higher = stronger / more preferred TF binding; most listed sequences are background and not binding sites
Settings: protein concentration: 200 nM; construct: GST-full length
In short: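 PURExpress in vitro transcription/translation supplied GST-tagged yeast transcription factors, either full-length or DNA-binding domain. Applied at about 100-200 nM to universal all-10-mer Agilent arrays double-stranded by primer extension, the bound protein was detected with fluorescent anti-GST. E-scores, modified Wilcoxon-Mann-Whitney statistics, were given by the Universal PBM Analysis Suite to ungapped eight-base words pooled with their reverse complements after masliner normalisation.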

Sequence	PBM E-score
CCGATAGC	-0.0452
GGGTGTGA	-0.313
CCTCCGCA	-0.15
CATCCATA	-0.0474
CACAGGAA	-0.0965
GCATTGAC	-0.0873
ACAATCGG	-0.0544
TACCCATA	0.0395
GCTAGCAC	-0.238
GCTCCTCC	-0.0935
CACCGCAA	0.279
ATGCTGGA	-0.027
AGACAAAA	-0.158
AAGTGACA	0.018
GCAGCGGA	0.0861
GCACTCGC	0.0475
AACACGAC	0.133
GGTGTTAC	-0.131
ACTTAGCA	-0.188
CCACCTCA	-0.0694
AATCTCAA	0.117
GAGCTTCC	0.115
GATTTACA	-0.0488
AGTTTTTG	-0.142
GCACCGAC	0.0494

Sequence	PBM E-score
GAAGCTGA	-0.202
CACTACGA	0.284
GGATTAGA	-0.175
AGATAACG	0.123
GGCAGGAC	-0.0996
GCCTCCCA	-0.166
GAACGACA	0.456
ACGTTGCT	0.196
CACTGTAC	0.00959
CATAATGC	-0.0828
AACCCGCG	0.0935
CTAAACAG	-0.109
CCCCGACG	-0.0371
CGGTGACA	-0.087
AACATGTG	0.0146
CATAGCAC	-0.0177
CTAGACGC	-0.00042
CTAAAGAG	0.0114
CTTATTTC	-0.0156
ATTACTTA	0.015
CGTTACCA	0.149
CCGTACCA	0.423
GTCATAAC	-0.126
CCACCGGG	-0.108
CATTTAAA	0.0151

Sequence	PBM E-score
AGGCCAGA	-0.178
CCGGTTTA	0.0921
AAAAGTGC	-0.0258
GAATCATA	-0.0949
CATCACTA	-0.116
AGCAGTCC	-0.358
CGCGCTGA	-0.0978
GACATTCA	-0.0786
ATAGATAC	0.128
TTACTGAA	0.14
GTACACGA	0.334
CCGTATGA	0.396
TCTGCTCA	-0.168
CAAAAGGG	-0.181
GAAAAGAC	-0.0519
CGCCTTAC	-0.0202
CTAAGACA	-0.0386
GACAAATC	-0.0608
AGGCCCTG	-0.265
CCGGTTTC	-0.063
GAAAAAAA	0.0711
ACCATGTC	0.107
CGGTTTTA	0.072
CATTCCCC	-0.171
CCTAAGCA	-0.137

Sequence	PBM E-score
CTGCTATA	-0.0309
GCGTGACA	-0.018
GAAATGCA	-0.0453
GCGCTGCC	-0.227
CAATCGAG	0.0272
GACATGAC	-0.0817
GGTAATTA	0.0657
CCGAATTC	0.156
ATCACGGG	-0.0941
AAGCTCTA	-0.0207
CGACGGCA	0.24
CGCTGGAA	-0.167
GGAAGTAA	-0.0167
CATTTGGC	-0.217
ACGCCTGA	0.0176
GTGACTTA	-0.107
AAGGTAAG	-0.0527
TATGCGCA	0.0405
ATGACTTC	-0.0108
ACTTTCCT	-0.287
CGCAAGCC	0.0725
GACGGCAA	-0.155
TCATGGCA	-0.173
TAACCCAA	-0.139
CGTCGAGC	-0.0203

Sequence	PBM E-score
AGTAAGGA	-0.124
CCCAATTC	0.0278
CAATCGCG	0.118
ACGCGACC	0.204
GGCAGGGA	-0.148
AAGGTTAT	0.0139
CAAAGCTG	-0.191
AACCGAGT	0.204
AACTGTTA	0.091
CCTGCGTA	0.215
CAATAAGC	-0.0593
AGTAGTAC	0.167
ATATGAGC	-0.14
GGCATACC	-0.202
AGTGCGTG	0.0494
ATGAGACA	0.00575
GACCGAAC	0.198
GCATCGCC	0.0445
GGCAAAGA	0.0998
ACACGTCG	0.189
AATGGTTC	-0.00726
GAGTGGCC	0.0549
AGGTGCAC	-0.217
AAGTTTAT	0.0346
GCATAGCA	-0.00745

Sequence	PBM E-score
GACCTTGC	0.096
AGATCATA	-0.0154
CCGCAAGA	0.0804
ACAGAAAA	0.11
AATATAGA	0.0601
AAACTCCT	-0.185
AAAGGCAA	-0.13
ATTCGCAA	0.0528
CACTACTA	-0.172
CACCCATG	-0.165
GGGGTCTA	-0.178
GTATCCCA	-0.118
CACTCTAA	-0.266
GGGAATTA	-0.132
GACGCCTC	0.117
ACCGTTAC	0.0437
GCAGTTAC	0.0133
CATTATAG	-0.144
CGAATGAC	0.192
GTAAAGAA	0.156
CATTTAAG	-0.0776
AAGAAGGC	-0.198
CGTAGCTC	0.32
TCGATTCA	0.0423
CCTCATCA	-0.0607

Sequence	PBM E-score
GTTACAGA	-0.244
ATCTCTCG	0.222
CCCACGCC	-0.152
ATACGAAT	0.45
CAGAGCCA	-0.108
ATAGATGA	-0.0201
ATCCTTAC	-0.0592
AGGCTTTA	-0.133
CGGGCAAA	0.0112
ACACGGAA	-0.124
CAATATGG	-0.263
AACCTACG	0.0972
GTTTTGGA	-0.102
CTCGACAA	0.0127
ACCCGTGG	-0.201
ATCGATAA	-0.0502
GTTGTTAA	0.0804
CTTAGCAC	-0.103
GCTATAAA	0.00908
AGGTACCT	-0.0974
GAATGATC	0.0119
CGTTCGTA	0.461
ACGTACCG	0.301
TATGGAGA	-0.121
CCTGAATC	-0.128

Sequence	PBM E-score
ACCATACA	-0.0596
GCTAAGAA	0.0908
CGTAAGAG	0.226
AGCATCGG	-0.0521
CGTTAGCA	0.0718
GGTTTCCA	-0.26
GACGAAAA	0.196
ACTGCTAC	0.00971
AGTTAGTA	-0.0292
CTTAGCCC	-0.15
AGGATCTG	-0.0568
AGCCGGCT	-0.311
TCAGCAAA	0.0003
ATTTCCTA	0.0839
AAGTTTCT	-0.162
ATCCGTCA	-0.099
ACGGGCGG	-0.105
GAGAGCGC	-0.0803
CGCGACCG	0.239
ACGCCTAT	-0.199
TCGACTCA	-0.0622
CAAGCCGG	-0.191
AAGCTTTC	0.014
CTAGCAGC	-0.208
CACTGTTC	-0.209

Sequence	PBM E-score
TAAGTTCA	-0.0208
GCGAACGC	0.138
CAGCTTGC	-0.144
GCAGTCTA	-0.131
AGTTCGGG	0.0511
GCATCGTA	0.426
ATCTGCAG	0.0311
CGCAGTAA	0.0437
GAAATTAC	-0.00336
GCAGCTAA	-0.0743
GGTTAGTA	0.116
AAAAGTAC	0.108
CCAGATTA	-0.112
ATGTTACA	-0.0708
ACCCCTTG	-0.206
ACTAGTTC	-0.0905
ATATACAG	0.113
AAAGGAAG	-0.135
GCCTGATA	-0.146
CTCGCGAA	0.326
GTACCTCA	0.12
CTAGGCAC	-0.255
CAAATTTC	-0.0201
TACGATAA	0.408
AACTCGCT	0.307

Sequence	PBM E-score
AGCTCGCA	0.239
GACCACTC	0.0777
ACATACCG	0.0445
AGCATCAT	-0.11
TCGCCCGA	-0.102
CGGATAGC	0.102
CCGTCAAA	-0.0196
GATTTGAA	-0.0728
GAGAGCCC	-0.0765
ACAGTCTG	-0.0108
GAGCCAGA	-0.133
CTGACTGC	-0.259
GTGGAGGA	-0.0767
GACACGCC	0.099
GGAAATTA	-0.0713
AGCTGGTA	-0.114
CTCAGTCA	-0.255
ACATCGAT	0.0238
ATTAGAGC	0.113
TACTCAGA	-0.0717
ACTAAGGA	0.1
CCACTTTC	-0.0677
AATCACCA	0.0614
AACTAAAT	-0.115
ACAGGCCC	-0.38

Sequence	PBM E-score
TACCAAAA	-0.143
CATTCTTC	-0.029
GTAACGAC	0.289
CACTAGCA	-0.103
ATGGGCTG	-0.233
AGATACGA	0.47
CAGGGACG	-0.229
CGAATGGC	0.0911
TCGGCCAA	-0.148
GGCCACGA	-0.164
CCCACTGC	-0.146
CAGCCCAA	-0.136
TCGTGCCA	0.0819
TAGCTCCA	-0.145
AGTGGCGG	-0.141
CGAACCGA	0.327
AGATTATG	0.0821
AATTAGCC	-0.0824
AGCGTGGG	-0.0957
CACATGCG	0.0542
CCATCCCC	-0.273
ACATCATA	-0.0357
AGAAAAAC	-0.0842
TCGTCACA	0.029
CTCTTAGA	-0.173

Sequence	PBM E-score
CCGGTCCC	-0.0746
ATTACGAG	0.38
CAATGGAA	-0.0891
ATAAATAA	0.248
GTGAGCCA	-0.175
CCTCTTCA	-0.189
ATAAGTAA	-0.0591
CGGGATCC	0.127
CTTTACTA	-0.106
CCGTGAAA	-0.0316
GCCCCTGA	-0.107
AACTTGCA	-0.0318
ACGGTTTG	0.198
CTCGGCCA	-0.103
ATACAGCG	-0.0852
CTTATAAC	0.0729
GCTCAGTA	0.0954
ACGAGTAA	0.396
AAAGTTTG	-0.161
CTACCCAC	-0.12
CTGCGAGA	-0.0526
ACCTACTG	-0.134
ACTGCTGG	-0.247
CGTGCACC	-0.0463
GATCACCC	0.0381

Sequence	PBM E-score
ACAATTCA	-0.0669
TCCTGTAA	-0.0782
ACACCTGC	-0.184
ATGTATTC	-0.0935
CCCGGGCG	-0.197
ACGTACTG	0.0651
CACGTAGG	-0.156
CGGAATTC	0.0717
ACCGTGCC	-0.182
CTTATTAC	0.0266
AGCGAGAA	0.246
ACGTATCG	0.192
CGCAGTGC	-0.127
TCAACAGA	-0.0821
ACGTGCTC	-0.0831
CAGAAGCA	-0.0994
ATACTAAC	0.0809
ACGGCTCA	0.0407
ATATAGAG	-0.131
CAGAATCG	0.17
ACCTCCTA	-0.181
AGTTGGAT	-0.0454
CGACATAC	0.216
AGTTACAC	0.0121
GCAGGATA	-0.19

Sequence	PBM E-score
GACGGCAC	-0.0593
GTAAAGTA	0.147
AACCAGAG	-0.082
CAAGTGTC	-0.133
GCACGACC	-0.219
CCAATGTA	-0.123
AAGCGGGT	0.0621
ATTCCCTC	-0.146
GAACAGAA	-0.142
CCTTAAGA	-0.114
CGCAGGTA	0.161
AGCCGGAC	0.175
CGCCCCCC	-0.269
GGGGAGAA	-0.027
CGTTACTC	0.111
CCGGTTAA	0.132
TATCATGA	0.0463
GACCCGAC	0.136
CCAAACGG	0.287
